# Measurements published in the supplement of paper PMC10037445.
# Whole data set: some 2,900 compounds, median “NF-kB SEAP reporter activity, fold change vs agonist alone” near 0.99, cut for the highest 2% near 2.6. Some of the results follow.
# How the values were obtained:
# RAW-Dual [1] = assay: NF-kB SEAP reporter activity, fold change vs agonist alone; higher = enhanced NF-kB activity; details: library stock concentration (final ~1000-fold dilution): 10 mM
# Procedure, shortened: (§1)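 RAW-Dual macrophages (50,000 cells/well in DMEM, 384-well plates) received 50 nL of library stock by pin tool, then a PRR agonist 1 h later, and were kept at 37 °C, 5% CO2. After 20 hours, supernatant was read for IRF by QuantiLuc luminescence and for NF-κB by QuantiBlue absorbance at 620 nm. Reporter activity is fold change over agonist-alone wells. Cytotoxic wells had IncuCyte confluency below 70% of agonist controls in both mask sets.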
# RAW-Dual [2] = assay: NF-kB SEAP reporter activity, fold change vs agonist alone; cytotoxicity flag (confluency mask): not cytotoxic; higher = enhanced NF-kB activity
# Procedure, shortened: as §1
# RAW-Dual [3] = assay: NF-kB SEAP reporter activity, fold change vs agonist alone; cytotoxicity flag (confluency mask): cytotoxic (confluency <70% of control); higher = enhanced NF-kB activity
# Procedure, shortened: as §1
# [4] = cytotoxicity flag (confluency mask): not cytotoxic, agonist: Imiquimod (TLR7) […]
# [5] = cytotoxicity flag (confluency mask): not cytotoxic, agonist: MPLA (TLR4) […]
# [6] = agonist: ODN 1826 (TLR9) 0.5 ug/mL
# [7] = agonist: Pam2CSK4 (TLR2/6) 0.1 ug/mL
# [8] = agonist: Pam3CSK4 (TLR2/1) 0.1 ug/mL
# [9] = cytotoxicity flag (confluency mask): cytotoxic (confluency <70% of control), agonist: Imiquimod (TLR7) […]
# [10] = cytotoxicity flag (confluency mask): cytotoxic (confluency <70% of control), agonist: MPLA (TLR4) […]
structure (smiles),measurement,setting,value
Cc1c(C(=O)Nc2ccc(N3CCC(N4CCOCC4)CC3)c(C#N)c2)cnn1-c1ccc(Cl)cc1,NF-kB SEAP reporter activity,RAW-Dual [1]; [4],1.32
same,NF-kB SEAP reporter activity,RAW-Dual [1]; [5],1.51
OCC1OC(Oc2ccc(O)cc2)C(O)C(O)C1O (stereo not given),NF-kB SEAP reporter activity,RAW-Dual [1]; [4],0.855
same,NF-kB SEAP reporter activity,RAW-Dual [1]; [5],0.972
OCC1OC(Oc2ccc(O)cc2)C(O)C(O)C1O (stereo not given) (library stock concentration (final ~1000-fold dilution): 10 mM),NF-kB SEAP reporter activity,RAW-Dual [2]; agonist: LPS (TLR4) 0.1 ug/mL,1.45
same,NF-kB SEAP reporter activity,RAW-Dual [2]; [6],0.976
same,NF-kB SEAP reporter activity,RAW-Dual [2]; [7],1.07
same,NF-kB SEAP reporter activity,RAW-Dual [2]; [8],1.17
C1=CCOCc2cc(ccc2OCCN2CCCC2)Nc2nccc(n2)-c2cccc(c2)COC1 (library stock concentration (final ~1000-fold dilution): 10 mM),NF-kB SEAP reporter activity,RAW-Dual [3]; agonist: LPS (TLR4) 0.1 ug/mL,0.498
same,NF-kB SEAP reporter activity,RAW-Dual [3]; [6],0.245
same,NF-kB SEAP reporter activity,RAW-Dual [3]; [7],0.176
same,NF-kB SEAP reporter activity,RAW-Dual [3]; [8],0.256
C1=CCOCc2cc(ccc2OCCN2CCCC2)Nc2nccc(n2)-c2cccc(c2)COC1,NF-kB SEAP reporter activity,RAW-Dual [1]; [9],1.52
same,NF-kB SEAP reporter activity,RAW-Dual [1]; [10],0.838
Cc1c(Br)c(Br)c2c3c1nc(N1CCNCC1)n3CCC2.Cl (library stock concentration (final ~1000-fold dilution): 10 mM),NF-kB SEAP reporter activity,RAW-Dual [3]; agonist: LPS (TLR4) 0.1 ug/mL,0.39
same,NF-kB SEAP reporter activity,RAW-Dual [3]; [6],0.167
same,NF-kB SEAP reporter activity,RAW-Dual [3]; [7],0.0751
same,NF-kB SEAP reporter activity,RAW-Dual [3]; [8],0.133
Cc1c(Br)c(Br)c2c3c1nc(N1CCNCC1)n3CCC2.Cl,NF-kB SEAP reporter activity,RAW-Dual [1]; [9],0.154
same,NF-kB SEAP reporter activity,RAW-Dual [1]; [10],0.272
Cc1ccc(Nc2ncc3c(n2)N(C)C(=O)N(c2cc(NC(=O)c4cccc(C(F)(F)F)c4)ccc2C)C3)cn1 (library stock concentration (final ~1000-fold dilution): 10 mM),NF-kB SEAP reporter activity,RAW-Dual [2]; agonist: LPS (TLR4) 0.1 ug/mL,0.219
same,NF-kB SEAP reporter activity,RAW-Dual [2]; [6],0.2
same,NF-kB SEAP reporter activity,RAW-Dual [2]; [7],0.0688
same,NF-kB SEAP reporter activity,RAW-Dual [2]; [8],0.129
Cc1ccc(Nc2ncc3c(n2)N(C)C(=O)N(c2cc(NC(=O)c4cccc(C(F)(F)F)c4)ccc2C)C3)cn1,NF-kB SEAP reporter activity,RAW-Dual [1]; [4],0.175
same,NF-kB SEAP reporter activity,RAW-Dual [1]; [5],0.255
O=C(Oc1ccccc1C(=O)O)c1ccccc1O,NF-kB SEAP reporter activity,RAW-Dual [1]; [4],0.884
same,NF-kB SEAP reporter activity,RAW-Dual [1]; [5],1
O=C(Oc1ccccc1C(=O)O)c1ccccc1O (library stock concentration (final ~1000-fold dilution): 10 mM),NF-kB SEAP reporter activity,RAW-Dual [2]; agonist: LPS (TLR4) 0.1 ug/mL,1.03
same,NF-kB SEAP reporter activity,RAW-Dual [2]; [6],0.921
same,NF-kB SEAP reporter activity,RAW-Dual [2]; [7],0.775
same,NF-kB SEAP reporter activity,RAW-Dual [2]; [8],0.675
COc1c(C)c2c(c(O)c1C/C=C(\C)CCC(=O)O)C(=O)OC2 (library stock concentration (final ~1000-fold dilution): 10 mM),NF-kB SEAP reporter activity,RAW-Dual [2]; agonist: LPS (TLR4) 0.1 ug/mL,0.417
same,NF-kB SEAP reporter activity,RAW-Dual [2]; [6],0.969
same,NF-kB SEAP reporter activity,RAW-Dual [2]; [7],0.139
same,NF-kB SEAP reporter activity,RAW-Dual [2]; [8],0.705
COc1c(C)c2c(c(O)c1C/C=C(\C)CCC(=O)O)C(=O)OC2,NF-kB SEAP reporter activity,RAW-Dual [1]; [4],0.876
same,NF-kB SEAP reporter activity,RAW-Dual [1]; [5],0.948
NS(=O)(=O)c1cc(Cl)c(Cl)c(S(N)(=O)=O)c1,NF-kB SEAP reporter activity,RAW-Dual [1]; [4],1.02
same,NF-kB SEAP reporter activity,RAW-Dual [1]; [5],0.984
NS(=O)(=O)c1cc(Cl)c(Cl)c(S(N)(=O)=O)c1 (library stock concentration (final ~1000-fold dilution): 10 mM),NF-kB SEAP reporter activity,RAW-Dual [2]; agonist: LPS (TLR4) 0.1 ug/mL,0.975
same,NF-kB SEAP reporter activity,RAW-Dual [2]; [6],0.998
same,NF-kB SEAP reporter activity,RAW-Dual [2]; [7],1.01
same,NF-kB SEAP reporter activity,RAW-Dual [2]; [8],1.06
CS(=O)(=O)c1ccc(-c2cnc(N)c(C(=O)Nc3ccccc3)n2)cc1 (library stock concentration (final ~1000-fold dilution): 10 mM),NF-kB SEAP reporter activity,RAW-Dual [2]; agonist: LPS (TLR4) 0.1 ug/mL,4.61
same,NF-kB SEAP reporter activity,RAW-Dual [2]; [6],0.67
same,NF-kB SEAP reporter activity,RAW-Dual [2]; [7],1.02
same,NF-kB SEAP reporter activity,RAW-Dual [2]; [8],1.48
CS(=O)(=O)c1ccc(-c2cnc(N)c(C(=O)Nc3ccccc3)n2)cc1,NF-kB SEAP reporter activity,RAW-Dual [1]; [4],1.45
same,NF-kB SEAP reporter activity,RAW-Dual [1]; [5],2.21
CCOc1cc(CC(=O)NC(CC(C)C)c2ccccc2N2CCCCC2)ccc1C(=O)O (stereo not given) (library stock concentration (final ~1000-fold dilution): 10 mM),NF-kB SEAP reporter activity,RAW-Dual [2]; agonist: LPS (TLR4) 0.1 ug/mL,1.02
same,NF-kB SEAP reporter activity,RAW-Dual [2]; [6],0.971
same,NF-kB SEAP reporter activity,RAW-Dual [2]; [7],0.889
same,NF-kB SEAP reporter activity,RAW-Dual [2]; [8],1.02
CCOc1cc(CC(=O)NC(CC(C)C)c2ccccc2N2CCCCC2)ccc1C(=O)O (stereo not given),NF-kB SEAP reporter activity,RAW-Dual [1]; [4],0.996
same,NF-kB SEAP reporter activity,RAW-Dual [1]; [5],1.07
O=C(c1ccc(/C=C/c2n[nH]c3ccccc23)cc1)N1CCNCC1,NF-kB SEAP reporter activity,RAW-Dual [1]; [4],0.939
same,NF-kB SEAP reporter activity,RAW-Dual [1]; [5],0.965
O=C(c1ccc(/C=C/c2n[nH]c3ccccc23)cc1)N1CCNCC1 (library stock concentration (final ~1000-fold dilution): 10 mM),NF-kB SEAP reporter activity,RAW-Dual [2]; agonist: LPS (TLR4) 0.1 ug/mL,0.301
same,NF-kB SEAP reporter activity,RAW-Dual [2]; [6],0.251
same,NF-kB SEAP reporter activity,RAW-Dual [2]; [7],0.211
same,NF-kB SEAP reporter activity,RAW-Dual [2]; [8],0.386
C/C(=C\C(=O)Nc1ccccc1C(=O)O)c1ccc2ccccc2c1 (library stock concentration (final ~1000-fold dilution): 10 mM),NF-kB SEAP reporter activity,RAW-Dual [2]; agonist: LPS (TLR4) 0.1 ug/mL,1.1
same,NF-kB SEAP reporter activity,RAW-Dual [2]; [6],1.18
same,NF-kB SEAP reporter activity,RAW-Dual [2]; [7],0.777
same,NF-kB SEAP reporter activity,RAW-Dual [2]; [8],0.793
C/C(=C\C(=O)Nc1ccccc1C(=O)O)c1ccc2ccccc2c1,NF-kB SEAP reporter activity,RAW-Dual [1]; [4],1.22
same,NF-kB SEAP reporter activity,RAW-Dual [1]; [5],0.986
Cc1ccc(-n2sc(=O)n(Cc3ccc(F)cc3)c2=O)cc1 (library stock concentration (final ~1000-fold dilution): 10 mM),NF-kB SEAP reporter activity,RAW-Dual [3]; agonist: LPS (TLR4) 0.1 ug/mL,0.522
same,NF-kB SEAP reporter activity,RAW-Dual [3]; [6],0.589
same,NF-kB SEAP reporter activity,RAW-Dual [3]; [7],0.504
same,NF-kB SEAP reporter activity,RAW-Dual [3]; [8],0.79
Cc1ccc(-n2sc(=O)n(Cc3ccc(F)cc3)c2=O)cc1,NF-kB SEAP reporter activity,RAW-Dual [1]; [9],1.07
same,NF-kB SEAP reporter activity,RAW-Dual [1]; [10],0.68
Cc1cc(Cl)ccc1OCCCC(=O)NO (library stock concentration (final ~1000-fold dilution): 10 mM),NF-kB SEAP reporter activity,RAW-Dual [2]; agonist: LPS (TLR4) 0.1 ug/mL,1.51
same,NF-kB SEAP reporter activity,RAW-Dual [2]; [6],0.823
same,NF-kB SEAP reporter activity,RAW-Dual [2]; [7],0.939
same,NF-kB SEAP reporter activity,RAW-Dual [2]; [8],0.726
Cc1cc(Cl)ccc1OCCCC(=O)NO,NF-kB SEAP reporter activity,RAW-Dual [1]; [4],1.35
same,NF-kB SEAP reporter activity,RAW-Dual [1]; [5],1.31
